Source: PubChem BioAssay AID887 (National Center for Advancing Translational Sciences (NCATS), 2007)
The whole screen tested about 74,000 compounds, of which about 1,100 (1.5%) were called active. The shares of active, inactive and inconclusive entries below differ from those in the screen. Calls follow the shape of the dose curve; as a rule, active = well fitted inhibition curve with a large enough effect; inconclusive = small, poorly fitted or top-dose-only effect; inactive = no such curve, though single readings can be large or run the other way. Potencies of inconclusive entries are left out as doubtful fits.
% is scaled to controls: 0 for no effect and ±100 for the full control effect; potency is read from the fitted curve at half-maximal effect; tags tell the direction and shape of the fitted curve.
Also: nearly all actives have a fitted effect of over 55% in size.

The molecules below were run against Polyunsaturated fatty acid lipoxygenase ALOX15 (Homo sapiens) (UniProt P16050) (assay: qHTS Assay for Inhibitors of 15-hLO (15-human lipoxygenase)). Details: purified 15hLO-1, xylenol orange hydroperoxide absorbance; activity change, negative = inhibition: at 57.1 µM (top of the series) unless noted.
UniProt P16050, sequence (P16050 whole entry, looked up): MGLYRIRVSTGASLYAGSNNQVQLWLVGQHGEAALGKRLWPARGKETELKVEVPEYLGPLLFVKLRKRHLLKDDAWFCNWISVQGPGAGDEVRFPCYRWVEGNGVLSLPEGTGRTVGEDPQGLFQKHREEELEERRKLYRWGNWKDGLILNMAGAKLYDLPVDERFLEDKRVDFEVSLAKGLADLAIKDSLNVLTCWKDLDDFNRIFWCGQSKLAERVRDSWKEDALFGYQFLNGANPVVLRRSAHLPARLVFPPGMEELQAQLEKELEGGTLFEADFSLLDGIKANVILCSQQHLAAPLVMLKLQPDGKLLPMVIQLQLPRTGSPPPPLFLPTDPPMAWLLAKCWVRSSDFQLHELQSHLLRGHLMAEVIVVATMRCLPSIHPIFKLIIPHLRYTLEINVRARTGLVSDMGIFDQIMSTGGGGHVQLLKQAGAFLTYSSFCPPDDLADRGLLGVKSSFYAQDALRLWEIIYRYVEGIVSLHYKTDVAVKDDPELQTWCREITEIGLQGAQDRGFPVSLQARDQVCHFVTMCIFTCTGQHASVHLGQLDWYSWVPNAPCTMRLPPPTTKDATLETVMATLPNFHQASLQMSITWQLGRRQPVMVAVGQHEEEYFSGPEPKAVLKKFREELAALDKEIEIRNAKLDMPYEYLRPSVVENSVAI
Method in brief: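 Inhibition is scored from a chromogenic endpoint. After 15 min enzyme-compound contact, arachidonic acid (50 uM final) reacts 6 min with 40 nM 15hLO-1 at room temperature, then Fe-XO reagent is added for 30 min and absorbance ratio recorded.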
`COc1ccc(-c2nc3cnc(Nc4cccc(OC)c4)nc3n(C[C@H]3CCCO3)c2=O)cc1` was tested, and the Potency was inconclusive [inhibitor, single point].
With `CCOC(=O)CC1=C(C(=O)OCC)C(c2ccc(C)o2)C(C#N)=C(N)O1` (configuration not stated) the Potency was inconclusive [inhibitor, single point].
`COc1ccc(S(=O)(=O)NCc2ccco2)cc1-c1nnc2c3ccccc3c(C)nn12` was tested, and the Potency was “inactive”.
With `C#CCn1cnc2c(cnn2-c2ccc(C)c(C)c2)c1=O` the Potency was “inactive”.
`O=C(Nc1ccc2c(c1)OCO2)c1cccc(Cl)c1` was tested, and the Potency was “inactive”.
In the case of `CCOc1ccccc1N1CC(C(=O)Nc2ccccc2N2CCOCC2)CC1=O` (configuration not stated), the Potency is reported as “inactive”.
`COc1ccc(C(=O)N2CCC[C@@]3(CCN(c4cccc(-c5ccccc5)c4)C3)C2)cc1` was tested, and the Potency was active: 25.1 µM.
`CCn1c(SCC(=O)c2ccc(O)c(O)c2)nnc1-c1ccccc1OC` was tested, and the Potency was active: 15.8 µM.
In the case of `COc1ccccc1CNc1ccnc(-c2c(C)noc2C)n1`, the Potency is reported as inconclusive [inhibitor, single point].
In the case of `COC(=O)c1ccc2c(c1)NC(=O)C(N1CCOCC1)S2` (configuration not stated), the Potency is reported as inconclusive [inhibitor, single point].
In the case of `Cc1nc(C)c(C(=O)C2=C(O)C(=O)N(CCN3CCOCC3)C2c2cccs2)s1` (configuration not stated), the Potency is reported as inconclusive [inhibitor, single point].
With `CCOC(=O)C1CCCN(C(=O)CCC(=O)Nc2ccc3nc(N4CCOCC4)cc(C)c3c2)C1` (configuration not stated) the Potency was “inactive”.
With `CNc1ncncc1-c1ccc(C(=O)N(C)C)cc1` the Potency was inconclusive [inhibitor, single point].
For `O=S(=O)(NCCc1cn2ccccc2n1)c1ccc(F)c(C(F)(F)F)c1`, the Potency was inconclusive [inhibitor, partial curve].
`COc1ccccc1CNc1ncncc1-c1ccccc1C` was tested, and the Potency was inconclusive [inhibitor, single point].
In the case of `CN(C)c1ccnc(-c2ccccc2C(F)(F)F)n1`, the Potency is reported as inconclusive [inhibitor, single point].
`COc1ccc2cc(CN(CCCN3CCOCC3)Cc3nnnn3C3CCCCC3)c(=O)[nH]c2c1` was tested, and the Potency was inconclusive [inhibitor, partial curve].
For `Clc1cnccn1`, the Potency was “inactive”.
For `CCOC(=O)C(C)C(C)=O` (configuration not stated), the Potency was “inactive”.
For `CCOc1ccc(-c2nnc(N)s2)cc1`, the Potency was “inactive”.
In the case of `c1csc(-c2nnsc2-c2nc3ccccc3[nH]2)c1`, the Potency is reported as inconclusive [inhibitor, partial curve].
For `CSc1nc(-c2ccco2)nn1S(=O)(=O)c1ccc(C)cc1`, the Potency was active: 25.1 µM.
In the case of `Clc1ccc2[nH]c3c(c2c1)CCc1cn[nH]c1-3`, the Potency is reported as inconclusive [inhibitor, single point].
`CO[C@@H]1/C=C\O[C@]2(C)Oc3c(C)c(O)c4c(O)c(c(CN5CCN(C)CC5)c(O)c4c3C2=O)NC(=O)/C(C)=C\C=C[C@@H](C)[C@@H](O)[C@H](C)[C@@H](O)[C@H](C)[C@H](OC(C)=O)[C@@H]1C` was tested, and the Potency was inconclusive [inhibitor, partial curve].
For `CC1=C(C#N)C(c2cccnc2)C2=C(CC(C)(C)CC2=O)N1` (configuration not stated), the Potency was “inactive”.
`Cc1cc(NC(=O)Nc2ccc(N(C)C)cc2)c2cc(F)cc(F)c2n1` was tested, and the Potency was “inactive”.
For `Cc1nc2ccc(-c3ccccc3)cc2o1`, the Potency was “inactive”.
With `COc1ccc(-c2c(C)oc3c(CN4CCN(C)CC4)c(O)ccc3c2=O)cc1` the Potency was inconclusive [inhibitor, partial curve].
`Cc1noc(C)c1-c1nc(N(C)C)c2ccccc2n1` was tested, and the Potency was active: 15.8 µM.
In the case of `Cc1cc(O)c(-c2cc(O)c(C)cc2O)cc1O`, the Potency is reported as active: 1.58 µM.
With `CCCCCC[C@@H]([C@@H](C)O)n1cnc2c(N)ncnc21` the Potency was active: 12.6 µM.
In the case of `COc1ccc(-c2cc3ccccc3n2CC(O)CN2CCOCC2)cc1` (configuration not stated), the Potency is reported as inconclusive [inhibitor, single point].
`Cc1c(NC(=O)c2c(F)c(F)c(F)c(F)c2F)c(=O)n(-c2ccccc2)n1C` was tested, and the Potency was “inactive”.
In the case of `C[C@@]1(CCOCc2ccccc2)NC(=O)NC1=O`, the activity change, negative = inhibition is reported as inactive: 7.24% [at 11.4 µM].
With `CNc1cc(C)nc(-n2nc(C)cc2C)n1` the Potency was “inactive”.
With `c1ccc(N2CCN(c3nc4cc5c(cc4s3)OCO5)CC2)cc1` the Potency was active: 12.6 µM.
With `NC[C@@H](O)CSCc1ccc(Cl)cc1` the activity change, negative = inhibition was inactive: 2.47% [at 11.4 µM].
In the case of `COc1ccc2cc(CN(Cc3ccco3)C(c3nnnn3C3CCCCC3)C(C)C)c(=O)[nH]c2c1` (configuration not stated), the Potency is reported as “inactive”.
`CC1CC[C@@]2(OC1)OC1CC3C4CC[C@H]5CC(O)CC[C@@]5(C)C4CC[C@]3(C)C1C2C` (some centres not stated) was tested, and the Potency was “inactive”.
With `CC(C)C1Nc2ccc(S(N)(=O)=O)cc2C2C=CCC21` (configuration not stated) the Potency was inconclusive [inhibitor, partial curve].
For `CCN(CC)C(=O)C1CCCc2c1[nH]c1ccc(Cl)cc21` (configuration not stated), the Potency was inconclusive [inhibitor, single point].
In the case of `COc1ccc(NC(=O)c2ccco2)cc1NC(=O)c1cccc(OC(C)C)c1`, the Potency is reported as “inactive”.
In the case of `COc1ccc(-n2c(=O)c(-c3cccs3)nc3cncnc32)cc1`, the Potency is reported as “inactive”.
With `CCSC1=C(C#N)C(c2ccc(OC)c(OC)c2)CC(=O)N1` (configuration not stated) the Potency was “inactive”.
For `Cc1cccc(NC(=O)CN2C(=O)COc3ccc(Cl)cc32)c1`, the Potency was active: 5.01 µM.
With `COc1ccc(C2c3sc(=O)[nH]c3SC3C(=O)N(c4ccccc4)C(=O)C32)cc1` (configuration not stated) the Potency was inconclusive [inhibitor, partial curve].
For `O=C1Nc2cc(Cl)cnc2N2CCCC12` (configuration not stated), the Potency was inconclusive [inhibitor, single point].
In the case of `COc1ccc(OC)c(N(CC(=O)Nc2cccnc2)S(=O)(=O)c2ccc(OC)c(OC)c2)c1`, the Potency is reported as “inactive”.
`O=C(Nc1ccncc1)C1COc2ccccc2O1` (configuration not stated) was tested, and the Potency was “inactive”.
In the case of `CN1CC[C@@]2(CCCN(S(=O)(=O)c3ccccc3)C2)C1`, the Potency is reported as “inactive”.
In the case of `O=C(Nc1nc2c(ccc3ccccc32)s1)c1ccco1`, the Potency is reported as inconclusive [inhibitor, partial curve].
For `Cc1cc(C)c2c(=O)n(CC(=O)NCCCN3CCOCC3)sc2n1`, the Potency was inconclusive [inhibitor, full curve, poor fit].
`CCCOc1ccc(/C(O)=C2/C(=O)C(=O)N(CCN(C)C)C2c2ccco2)cc1` (configuration not stated) was tested, and the Potency was inconclusive [inhibitor, partial curve].
For `CCOC(=O)c1c(C2COc3ccccc3O2)csc1N` (configuration not stated), the Potency was inconclusive [inhibitor, partial curve].
With `COc1ccccc1NC(=O)Cn1cnc2c1c(=O)n(C)c(=O)n2C` the Potency was inconclusive [inhibitor, single point].
For `CCC(Sc1ccc2nnc(-c3ccc(OC)c(OC)c3)n2n1)C(=O)O` (configuration not stated), the Potency was inconclusive [inhibitor, single point].
For `Cc1noc(C)c1-c1nccc(NC2CC2)n1`, the Potency was inconclusive [inhibitor, single point].
`Cc1cc(-c2nc3ncccc3o2)ccc1N` was tested, and the Potency was “inactive”.
With `c1ccc2sc(SSc3nc4ccccc4s3)nc2c1` the Potency was inconclusive [inhibitor, full curve].
With `O=C(Nc1cccc(F)c1)N1CCCC2(CCN(C(=O)c3ccncc3)CC2)C1` the Potency was “inactive”.
For `O=[N+]([O-])c1ccccc1S(=O)(=O)NCC1CCC(CNCC2CCc3ccccc3C2)CC1` (configuration not stated), the Potency was inconclusive [inhibitor, single point].
For `CC1Cc2nc(SCC(=O)OCc3ccccc3)n(C)c(=O)c2S1` (configuration not stated), the Potency was inconclusive [inhibitor, partial curve].
For `N=C(N)c1ccc(OCCCCCOc2ccc(C(=N)N)cc2)cc1`, the Potency was inconclusive [inhibitor, single point].
In the case of `O=C(Cn1cnc2ccccc2c1=O)c1ccc2c(c1)OCCO2`, the Potency is reported as “inactive”.
`c1ccc(CNc2ncncc2-c2cccnc2)cc1` was tested, and the Potency was inconclusive [inhibitor, single point].
With `COc1ccc(-c2ocnc2C(=O)Nc2ccccc2N2CCCCC2)cc1` the Potency was “inactive”.
With `CSc1ccc(NC(=O)NCCCN2CCN(c3ccccc3F)CC2)cc1` the Potency was inconclusive [inhibitor, partial curve].
For `N=C(N)SCCc1ccc(OCc2ccc([N+](=O)[O-])cc2)cc1`, the Potency was inconclusive [inhibitor, single point].
For `c1ccc(OCCn2c(-c3ccco3)nc3ccccc32)cc1`, the Potency was “inactive”.
For `COc1ccc(NC(=O)CSc2nc3c(cc2C#N)CN(C)CC3)cc1`, the Potency was inconclusive [inhibitor, partial curve].
`CCOc1ccc(N(C(C)C(=O)Nc2ccc(OC)cc2)S(C)(=O)=O)cc1` (configuration not stated) was tested, and the activity change, negative = inhibition was inactive: -3.05% [at 11.4 µM].
`N#CC1=C(N)SC(N)=C(C#N)C1c1cccc(Oc2ccccc2)c1` was tested, and the Potency was active: 5.01 µM.
`CCC/C(O)=C1\C(=O)CC(C)(C)CC1=Nc1ccc(OC)cc1OC` was tested, and the Potency was inconclusive [inhibitor, partial curve].
For `O=c1cc(-c2ccccc2O)oc2c(O)c(O)ccc12`, the Potency was inconclusive [inhibitor, full curve, poor fit].
`COc1cc(-c2oc3cc(O)ccc3c(=O)c2O)ccc1O` was tested, and the Potency was active: 12.6 µM.
`CC(=O)Nc1cccc(NC(=O)CSc2ncc(-c3ccc(Cl)cc3)n2Cc2ccco2)c1` was tested, and the Potency was inconclusive [inhibitor, single point].
In the case of `COc1ccc(OC)c2sc(N3CCN(c4ccccc4)CC3)nc12`, the Potency is reported as inconclusive [inhibitor, full curve, poor fit].
